In PubChem BioAssay AID1347165 (National Center for Advancing Translational Sciences (NCATS), 2019):
The campaign covered roughly 220,000 compounds. About 5,700 (2.6%) were called active. Inconclusive results, whose numbers are uncertain, are shown with a selection of clear calls. The call rests on the fitted dose curve; in most records, active means well fitted inhibition curve with a large enough effect; inconclusive means small, poorly fitted or top-dose-only effect; inactive means no such curve, though single readings can be large or run the other way. A potency beside an inconclusive call is a rough fit, not a confirmed value.

Biological target: Lysine-specific demethylase 5B (Homo sapiens) (UniProt Q9UGL1)
Assay: Primary screen for KDM5B Histone Demethylases FDH-coupled qHTS; further: nearly all actives have a fitted effect of over 70% in size; on activity change, negative = inhibition: 0% is about no effect
Conditions: FDH-coupled NADH fluorescence (FDH is formaldehyde dehydrogenase); activity change, negative = inhibition: at 57.7 µM (top of the series) unless noted
Summary of the method: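 Here, H3K4me3 peptide (12.5 µM in substrate mix) is demethylated by KDM5BΔAP, 200 nM final, after 10 min compound exposure. Formaldehyde product is coupled through FDH (0.25 U/mL in mix) to NADH fluorescence; 30-min ΔRFU feeds dose-response curves.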
Potency means the concentration at half of the fitted maximal effect; tags describe the fitted curve by direction and shape.

Sequence of UniProt Q9UGL1 (Q9UGL1 whole entry, looked up): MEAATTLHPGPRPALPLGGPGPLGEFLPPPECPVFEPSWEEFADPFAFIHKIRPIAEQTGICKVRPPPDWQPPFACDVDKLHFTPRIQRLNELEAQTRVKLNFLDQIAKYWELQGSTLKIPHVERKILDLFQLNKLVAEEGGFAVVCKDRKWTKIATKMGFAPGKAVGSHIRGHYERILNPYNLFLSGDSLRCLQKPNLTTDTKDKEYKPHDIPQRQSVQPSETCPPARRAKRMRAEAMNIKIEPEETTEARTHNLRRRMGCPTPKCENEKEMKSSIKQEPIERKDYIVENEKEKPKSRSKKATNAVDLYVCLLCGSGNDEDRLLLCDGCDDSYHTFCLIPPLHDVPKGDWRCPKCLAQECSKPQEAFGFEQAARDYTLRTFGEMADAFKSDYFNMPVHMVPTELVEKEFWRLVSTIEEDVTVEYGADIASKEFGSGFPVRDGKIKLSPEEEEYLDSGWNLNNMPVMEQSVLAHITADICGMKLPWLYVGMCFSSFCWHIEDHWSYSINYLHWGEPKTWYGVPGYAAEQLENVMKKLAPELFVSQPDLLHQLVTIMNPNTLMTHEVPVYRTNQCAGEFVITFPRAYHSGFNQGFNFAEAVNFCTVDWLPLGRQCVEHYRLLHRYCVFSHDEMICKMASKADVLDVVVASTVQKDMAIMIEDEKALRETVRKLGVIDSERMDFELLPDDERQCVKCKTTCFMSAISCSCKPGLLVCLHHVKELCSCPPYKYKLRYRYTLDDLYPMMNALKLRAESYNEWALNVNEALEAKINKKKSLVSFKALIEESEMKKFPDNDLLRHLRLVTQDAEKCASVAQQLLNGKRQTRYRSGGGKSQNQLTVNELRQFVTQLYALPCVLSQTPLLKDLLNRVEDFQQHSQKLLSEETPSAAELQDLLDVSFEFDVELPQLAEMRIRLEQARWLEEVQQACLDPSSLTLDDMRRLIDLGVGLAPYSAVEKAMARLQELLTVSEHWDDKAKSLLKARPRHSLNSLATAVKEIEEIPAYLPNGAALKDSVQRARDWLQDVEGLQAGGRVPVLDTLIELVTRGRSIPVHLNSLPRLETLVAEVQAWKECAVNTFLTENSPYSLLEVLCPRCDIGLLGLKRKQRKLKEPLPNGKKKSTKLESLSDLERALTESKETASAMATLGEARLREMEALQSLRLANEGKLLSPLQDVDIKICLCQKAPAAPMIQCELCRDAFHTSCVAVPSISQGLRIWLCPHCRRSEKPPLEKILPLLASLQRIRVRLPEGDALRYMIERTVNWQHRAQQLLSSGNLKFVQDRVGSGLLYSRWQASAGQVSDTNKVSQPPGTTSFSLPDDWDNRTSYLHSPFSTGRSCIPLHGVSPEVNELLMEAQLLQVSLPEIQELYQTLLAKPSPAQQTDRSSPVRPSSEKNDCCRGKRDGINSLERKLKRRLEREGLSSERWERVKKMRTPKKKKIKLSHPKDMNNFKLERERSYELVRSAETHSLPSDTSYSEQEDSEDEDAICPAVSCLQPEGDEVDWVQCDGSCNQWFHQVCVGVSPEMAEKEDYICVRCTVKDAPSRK

**Q.** Which Potency does the source give for `CCOC(=O)C1CCN(C(=O)c2cc(-c3ccncc3)cn2Cc2ccc(C)cc2)CC1` here?
**A.** inconclusive: 31.6 µM [inhibitor, single point]

**Q.** `COc1cc(-c2nc(-c3c(C)noc3C)cc3cc(C)oc23)ccn1` was tested. Which Potency did it give?
**A.** active: 35.5 µM

**Q.** `CCOc1ccccc1C(=O)NC1CCCN(c2cc(-c3ccc(F)cc3)[nH]n2)C1` (centres undefined) was tested. Which Potency did it give?
**A.** inconclusive: 17.8 µM [inhibitor, partial curve]

**Q.** With `O=c1c2c3c(sc2nc2c4ccccc4c(N4CCCCC4)nn12)CCC3` as the molecule, how does the “activity change, negative = inhibition” value read?
**A.** inactive: 4.88%

**Q.** With `N#C/C(=C\C=C\c1ccco1)C(=O)NC1CCCCC1` as the molecule, how does the Potency read?
**A.** inconclusive: 10 µM [inhibitor, partial curve, poor fit]

**Q.** Which Potency does the source give for `CCOc1ccccc1N1CCN(C(=O)c2cc(S(=O)(=O)N3CCCCC3)ccc2C)CC1` here?
**A.** inconclusive: 3.55 µM [inhibitor, full curve, poor fit]

**Q.** With `C=CCc1c(OC)ccc2c1c(S(=O)(=O)c1ccc(C)cc1)cn2COC` as the molecule, how does the Potency read?
**A.** inconclusive: 2.51 µM [inhibitor, full curve, poor fit]

**Q.** With `CN1c2cc(C(=O)NCCc3ccccc3)ccc2C(=O)N2CCCC21` (centres undefined) as the molecule, how does the Potency read?
**A.** inconclusive: 20 µM [inhibitor, partial curve, poor fit]

**Q.** `Cc1ccc(-c2c(NC(=O)CN3CCC(C(N)=O)CC3)oc3ccccc3c2=O)cc1` was tested. Which Potency did it give?
**A.** inconclusive: 28.2 µM [inhibitor, partial curve, poor fit]

**Q.** Which “activity change, negative = inhibition” value does the source give for `CCCCCCn1nc(C(=O)OCC(=O)Nc2ccccc2F)c2ccccc2c1=O` here?
**A.** inactive: -14.2%

**Q.** `O=C(Nc1ccc2oc(-c3ccccc3F)nc2c1)c1ccc2c(c1)OCCO2` was tested. Which Potency did it give?
**A.** inconclusive: 25.1 µM [inhibitor, partial curve, poor fit]

**Q.** Which “activity change, negative = inhibition” value does the source give for `CCOC(=O)CN1C(=O)c2cccnc2Oc2ccccc21` here?
**A.** inactive: 6.1%

**Q.** How did the Potency turn out when `O=C1NCC(=O)N2CCN(Cc3ccccc3-c3ccccc3)CC12` (centres undefined) was run?
**A.** inconclusive: 25.1 µM [inhibitor, partial curve, poor fit]

**Q.** For `O=C(CCCn1c(=O)c2sccc2n(Cc2cccc(Cl)c2)c1=O)NCc1ccc2c(c1)OCO2`, which Potency is on record?
**A.** inconclusive: 35.5 µM [inhibitor, partial curve, poor fit]

**Q.** How did the Potency turn out when `CCOC1CSc2sc(=S)sc2S1` (centres undefined) was run?
**A.** inconclusive: 14.1 µM [inhibitor, partial curve, poor fit]

**Q.** `CCC(C(=O)NCc1ccccc1Cl)n1nc(C)c2sc3ccccc3c2c1=O` (centres undefined) was tested. Which Potency did it give?
**A.** inconclusive: 17.8 µM [inhibitor, partial curve, poor fit]

**Q.** `CC(C)C[C@@H]1N[C@H](C(=O)N2CCC(NC(=O)c3ccccc3)CC2)Cc2c[nH]c3cccc1c23` was tested. Which “activity change, negative = inhibition” value did it give?
**A.** inactive: -21.4%

**Q.** Which Potency does the source give for `O=C(NCc1ccccc1)NC[C@H]1Cn2c(-c3ccc(Cl)cc3)cnc2CO1` here?
**A.** inconclusive: 39.8 µM [inhibitor, partial curve, poor fit]

**Q.** How did the Potency turn out when `Cc1cc(CNC(=O)[C@@H]2CCC[C@@H](NCc3nccn3C)CN(C)C(=O)C2)no1` was run?
**A.** inconclusive: 39.8 µM [inhibitor, partial curve, poor fit]

**Q.** For `COc1ccc(C(=O)Nc2noc3ccccc23)cc1`, which “activity change, negative = inhibition” value is on record?
**A.** inactive: -10.3%

**Q.** For `Cc1ccc(CNC(=O)c2ccc(NC(=O)c3cc4c(=O)[nH]c(C)cn4n3)cc2)cc1`, which Potency is on record?
**A.** active: 3.16 µM

**Q.** For `Cc1cccc(C)c1NC(=O)CNC(=O)CCc1ncc(-c2ccccc2F)o1`, which “activity change, negative = inhibition” value is on record?
**A.** inactive: -3.85%

**Q.** Which Potency does the source give for `COc1cc(C(=O)N2CCC(N3CCCCCC3)CC2)cc(OC)c1OC` here?
**A.** inconclusive: 22.4 µM [inhibitor, single point]

**Q.** With `COc1ccc(C2NC(=O)N(C)C3=C2C(=O)N(c2ccc(F)cc2)C3)cc1` (centres undefined) as the molecule, how does the Potency read?
**A.** inconclusive: 39.8 µM [inhibitor, single point]

**Q.** Which Potency does the source give for `COC(=O)/C(=C/c1cn(C(C)=O)c2ccccc12)[N+](=O)[O-]` here?
**A.** inconclusive: 25.1 µM [inhibitor, single point]

**Q.** `Cc1cccnc1NC(=O)C1c2ccccc2C(=O)N(C2CCCC2)C12CCCC2` (centres undefined) was tested. Which Potency did it give?
**A.** active: 15.8 µM

**Q.** How did the “activity change, negative = inhibition” value turn out when `COCc1nncn1C1CCN(S(=O)(=O)c2cccc(OC)c2)CC1` was run?
**A.** inactive: -17.1%

**Q.** For `Fc1ccc(Cn2c(-c3cccc(Br)c3)nc3ccccc32)cc1`, which Potency is on record?
**A.** inconclusive: 35.5 µM [inhibitor, single point]

**Q.** Which “activity change, negative = inhibition” value does the source give for `CCN(c1ccccc1)S(=O)(=O)Cc1ccccc1Cl` here?
**A.** inactive: 11.1%

**Q.** `Fc1ccc(F)c(CNCc2cccnc2-n2cccn2)c1` was tested. Which “activity change, negative = inhibition” value did it give?
**A.** inactive: 12.4%

**Q.** How did the Potency turn out when `O=C(Nc1cccc(-c2cccc(Cl)c2)c1)C1CCN(Cc2cccc(O)c2)CC1` was run?
**A.** inconclusive: 31.6 µM [inhibitor, partial curve, poor fit]

**Q.** `c1coc(-c2ccnc3nc(-c4cccs4)nn23)c1` was tested. Which Potency did it give?
**A.** active: 28.2 µM

**Q.** How did the “activity change, negative = inhibition” value turn out when `Fc1ccccc1Nc1ncnc2c1nc1n2CCCCC1` was run?
**A.** inactive: -3.8%

**Q.** With `COc1cccc(NC(=O)C(Cc2ccc(OC)cc2OC)c2nn[nH]n2)c1` (centres undefined) as the molecule, how does the “activity change, negative = inhibition” value read?
**A.** inactive: 5.63%

**Q.** With `CCn1nc(C)c2c(-c3ccccc3)cc(=O)n(C(C)C(=O)NCCc3ccccc3)c21` (centres undefined) as the molecule, how does the Potency read?
**A.** inconclusive: 35.5 µM [inhibitor, partial curve, poor fit]

**Q.** How did the “activity change, negative = inhibition” value turn out when `Cc1ccc2cccc(OCc3nnc(SCC(=O)O)n3C)c2n1` was run?
**A.** inactive: -28.1%

**Q.** How did the Potency turn out when `O=C(Nc1ccc(NC(=O)c2ccc(Cl)c(S(=O)(=O)N3CCOCC3)c2)cc1)c1ccccc1` was run?
**A.** inconclusive: 28.2 µM [inhibitor, single point]

**Q.** For `N#Cc1ccc(CN2C[C@@H]3C[C@H]2C(=O)N(Cc2ccccc2)c2ccccc2O3)cc1`, which Potency is on record?
**A.** active: 28.2 µM

**Q.** How did the “activity change, negative = inhibition” value turn out when `Cc1ccc(C)c(C(NC(=O)c2ccccc2F)c2cccnc2)c1` (centres undefined) was run?
**A.** inactive: 10.7%

**Q.** How did the Potency turn out when `CN(Cc1ccccc1)C1CCN(Cc2ccccc2F)CC1` was run?
**A.** inconclusive: 17.8 µM [inhibitor, partial curve, poor fit]

**Q.** `Cc1c(NC(=O)NCc2ccccc2)cccc1C(N)=O` was tested. Which “activity change, negative = inhibition” value did it give?
**A.** inactive: 15.5%

**Q.** Which Potency does the source give for `Cc1sc2ncn(CC(=O)N(C)c3cccc(C(F)(F)F)c3)c(=O)c2c1S(=O)(=O)N1CCN(c2ncccn2)CC1` here?
**A.** inconclusive: 1.41 µM [inhibitor, full curve, poor fit]

**Q.** Which “activity change, negative = inhibition” value does the source give for `CCCCCCCCCNC(=O)CC#N` here?
**A.** inactive: -10.4%

**Q.** Which Potency does the source give for `CN(C)[C@@H]1C[C@@H](CO)N(Cc2cc(=O)n3c4c(cccc24)CCC3)C1` here?
**A.** active: 22.4 µM

**Q.** How did the Potency turn out when `CN1C(CC(=O)Nc2ccc(Cl)cc2Cl)c2ccccc2CC1(C)C` (centres undefined) was run?
**A.** inconclusive: 28.2 µM [inhibitor, single point]

**Q.** With `CCN(Cc1nc2cc(Cl)ccc2c(=O)[nH]1)C(=O)CNC(=O)c1cccc(C)c1` as the molecule, how does the “activity change, negative = inhibition” value read?
**A.** inactive: -10.4%

**Q.** With `Cc1cc(N2CCOCC2)nc2ccc(NC(=S)NCCC(C)C)cc12` as the molecule, how does the Potency read?
**A.** inconclusive: 14.1 µM [inhibitor, partial curve, poor fit]

**Q.** How did the Potency turn out when `O=C(c1cnn2cc(CCO)cnc12)N1CCc2c(nc[nH]c2=O)C1` was run?
**A.** inconclusive: 31.6 µM [inhibitor, partial curve, poor fit]

**Q.** `O=C(c1nccs1)c1cccnc1N1CCNCC(O)C1` (centres undefined) was tested. Which Potency did it give?
**A.** active: 10 µM

**Q.** How did the “activity change, negative = inhibition” value turn out when `COc1cccc(Nc2ncc3c(n2)C(C)(C(=O)N2CCN(c4ccccn4)CC2)CC3)c1` (centres undefined) was run?
**A.** inactive: -23.7%

**Q.** With `CCC(=O)N1CCc2cc(Br)cc(S(=O)(=O)NCc3ccccc3)c21` as the molecule, how does the Potency read?
**A.** inconclusive: 3.55 µM [inhibitor, partial curve, poor fit]

**Q.** Which Potency does the source give for `CCCCNC(=O)c1cc(NC(=O)CC)cc2nc(C)ccc12` here?
**A.** active: 25.1 µM

**Q.** Which “activity change, negative = inhibition” value does the source give for `CC(C)NC(=O)N1CNC(=O)C12CCN(C(=O)Cc1ccc(O)cc1)CC2` here?
**A.** inactive: 4.88% [at 115 µM]

**Q.** How did the “activity change, negative = inhibition” value turn out when `CNC(=O)[C@@H]1CN(C(=O)c2cc(OC)cc(OC)c2)C[C@H]1COC` was run?
**A.** inactive: 13.5%

**Q.** `Cc1nc2sc(C(=O)OCC(=O)Nc3cccc(C(F)(F)F)c3)c(C)c2c(=O)[nH]1` was tested. Which Potency did it give?
**A.** inconclusive: 10 µM [inhibitor, partial curve, poor fit]

**Q.** Which “activity change, negative = inhibition” value does the source give for `COc1ccc(N2CC(c3noc(-c4cccc(F)c4)n3)CC2=O)cc1` (centres undefined) here?
**A.** inactive: -15.6%

**Q.** `O=C(NCc1cccs1)c1cc(-c2cccc(C(F)(F)F)c2)c2nncn2n1` was tested. Which Potency did it give?
**A.** active: 50.1 µM

**Q.** Which Potency does the source give for `COCCNC(=O)c1cc(-c2ccc(OC)cc2)nc2c1c(C)nn2-c1ccccc1` here?
**A.** inconclusive: 56.2 µM [inhibitor, partial curve, poor fit]

**Q.** `CC(C)CCN1C[C@@H]2C[C@H]1C(=O)N(Cc1cccnc1)c1ccccc1O2` was tested. Which Potency did it give?
**A.** inconclusive: 31.6 µM [inhibitor, partial curve]

**Q.** With `CC(C)[C@H]1CN(c2cnccn2)C[C@@H]1NC(=O)C1(C#N)CCOCC1` as the molecule, how does the Potency read?
**A.** inconclusive: 22.4 µM [inhibitor, single point]

**Q.** How did the Potency turn out when `Cc1cc(=O)oc2cc(OCC(=O)Nc3c(C(C)C)cccc3C(C)C)ccc12` was run?
**A.** inconclusive: 35.5 µM [inhibitor, partial curve, poor fit]

**Q.** With `COC(=O)c1cccc(NC(=O)c2ccc3c(c2)N(C)C2CCCCCN2C3=O)c1` (centres undefined) as the molecule, how does the Potency read?
**A.** inconclusive: 31.6 µM [inhibitor, partial curve, poor fit]

**Q.** `O=C(CCN1CCC(c2ccccc2)C1)c1ccc2ccccc2c1` (centres undefined) was tested. Which Potency did it give?
**A.** inconclusive: 25.1 µM [inhibitor, partial curve, poor fit]

**Q.** For `CCN1CCN(c2nc3c(s2)CN(C(=O)c2ccncc2)CC3)CC1`, which Potency is on record?
**A.** inconclusive: 11.2 µM [inhibitor, partial curve]

**Q.** Which “activity change, negative = inhibition” value does the source give for `Cc1ccc(Cn2c(C3CCN(C(=O)c4ccccc4Cl)CC3)n[nH]c2=O)cc1` here?
**A.** inactive: 0.861%

**Q.** `Cc1ccc(C2c3[nH]c4ccccc4c3CCN2C(=O)CCc2ccccc2)cc1` (centres undefined) was tested. Which Potency did it give?
**A.** inconclusive: 0.794 µM [inhibitor, full curve, poor fit]

**Q.** With `NC(Cc1ccccc1)c1nnc(SCc2ccccc2)o1` (centres undefined) as the molecule, how does the Potency read?
**A.** inconclusive: 39.8 µM [inhibitor, single point]

**Q.** `O=C(c1cc(-c2cccs2)[nH]n1)N1CCc2c(nc3cc(-c4ccccc4)[nH]n3c2=O)C1` was tested. Which Potency did it give?
**A.** active: 31.6 µM

**Q.** With `CC(C)C(=O)Nc1ccc(OCC(F)(F)F)c(C#N)c1` as the molecule, how does the “activity change, negative = inhibition” value read?
**A.** inactive: -2.56%
